Tested on: spontaneous Type 1 Diabetes
Test: spontaneous type 1 diabetes in NOD mice
Details: over 300 days; iv at 6, 8, and 10 weeks of age; diabetes = blood glucose >250 mg/dL

| Substance | percentage of mice that did not develop diabetes [%] |
| --- | --- |
| BSA coupled PLG particles: BSA coupled PLG particles, control [reference compound] | 22.7 |
| insulin coupled PLG particles: insulin coupled PLG particles | 69.6 |

From patent publication US11413337B2, “Peptide conjugated particles for the treatment of inflammation” (Northwestern University, priority 2012, dated 2022)
